In US20170121416A1:

Molecular target: Nectin-4 on cells (MCF-7, SKBR3) (UniProt Q96NY8)
Experiment: cell-based or functional assay

B1: anti-Nectin-4 antibody Ha22-2(2,4)6.1 (antibody, from another filing)
heavy: EVQLVESGGGLVQPGGSLRLSCAASGFTFSSYNMNWVRQAPGKGLEWVSYISSSSSTIYYADSVKGRFTISRDNAKNSLSLQMNSLRDEDTAVYYCARAYYYGMDVWGQGTTVTVSSASTKGPSVFPLAPSSKSTSGGTAALGCLVKDYFPEPVTVSWNSGALTSGVHTFPAVLQSSGLYSLSSVVTVPSSSLGTQTYICNVNHKPSNTKVDKRV[human IgG1 Fc omitted here]
light: DIQMTQSPSSVSASVGDRVTITCRASQGISGWLAWYQQKPGKAPKFLIYAASTLQSGVPSRFSGSGSGTDFTLTISSLQPEDFATYYCQQANSFPPTFGGGTKVEIKRTVAAPSVFIFPPSDEQLKSGTASVVCLLNNFYPREAKVQWKVDNALQSGNSQESVTEQDSKDSTYSLSSTLTLSKADYEKHKVYACEVTHQGLSSPVTKSFNRGEC
Question: Which results are given for B1?
Answer: IC50 on MCF-7 (pM), in vitro killing with anti-human IgG Fab-saporin: 9.94 pM; IC50 on SKBR3 (pM), in vitro killing with anti-human IgG Fab-saporin: 0.95 pM
